Among all 310,000 compounds or so, about 14,000 (4.5%) showed an effect of 50% or more. Effects have a minus sign here. The list shows a part of the results.
Each compound was assayed against human ether-à-go-go-related gene (hERG) potassium channel (human, UniProt Q12809) (assay: primary screen, population patch clamp on CHO cells stably expressing hERG).
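Also: peak tail current of the secondary pulse compared with the same well before compound.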

Sequence of human ether-à-go-go-related gene (hERG) potassium channel (Q12809 whole entry, looked up): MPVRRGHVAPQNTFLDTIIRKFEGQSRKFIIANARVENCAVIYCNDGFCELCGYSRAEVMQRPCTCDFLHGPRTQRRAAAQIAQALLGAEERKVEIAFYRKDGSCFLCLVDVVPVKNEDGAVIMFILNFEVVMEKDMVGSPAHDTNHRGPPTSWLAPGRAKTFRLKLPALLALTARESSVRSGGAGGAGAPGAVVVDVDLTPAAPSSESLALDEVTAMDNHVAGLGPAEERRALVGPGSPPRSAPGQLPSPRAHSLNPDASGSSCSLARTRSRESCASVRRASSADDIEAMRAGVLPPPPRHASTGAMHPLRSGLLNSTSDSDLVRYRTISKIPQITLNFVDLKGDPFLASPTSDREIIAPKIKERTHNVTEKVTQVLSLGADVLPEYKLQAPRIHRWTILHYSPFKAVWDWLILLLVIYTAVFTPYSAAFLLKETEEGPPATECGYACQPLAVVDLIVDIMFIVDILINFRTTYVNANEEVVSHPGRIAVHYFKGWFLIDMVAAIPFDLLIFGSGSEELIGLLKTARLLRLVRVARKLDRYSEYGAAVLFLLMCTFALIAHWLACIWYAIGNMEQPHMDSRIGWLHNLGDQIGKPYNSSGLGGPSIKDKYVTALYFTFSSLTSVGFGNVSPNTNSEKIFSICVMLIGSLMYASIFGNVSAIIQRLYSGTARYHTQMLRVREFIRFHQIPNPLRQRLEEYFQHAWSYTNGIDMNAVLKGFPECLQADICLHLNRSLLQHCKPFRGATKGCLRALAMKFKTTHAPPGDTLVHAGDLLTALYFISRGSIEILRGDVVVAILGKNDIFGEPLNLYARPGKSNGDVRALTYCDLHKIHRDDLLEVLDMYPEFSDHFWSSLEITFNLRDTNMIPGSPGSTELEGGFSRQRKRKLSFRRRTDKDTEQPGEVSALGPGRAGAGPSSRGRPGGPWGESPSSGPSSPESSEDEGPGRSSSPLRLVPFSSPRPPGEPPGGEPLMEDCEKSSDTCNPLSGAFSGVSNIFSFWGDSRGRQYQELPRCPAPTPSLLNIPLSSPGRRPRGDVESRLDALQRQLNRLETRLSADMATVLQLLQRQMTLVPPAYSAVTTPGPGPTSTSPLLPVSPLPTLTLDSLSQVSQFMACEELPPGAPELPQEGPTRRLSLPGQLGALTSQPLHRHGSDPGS

| Structure (SMILES) | hERG current change (%, negative = inhibition) at 10uM [%] |
| --- | --- |
| O=C1OC(C(=O)O)Cc2ccccc21 (stereo not shown) | 5.21 |
| O=C(NCc1ccccc1)c1cc2ccc(O)cc2oc1=O | 25 |
| CCS(=O)(=O)C1=NSC2=NC(=O)/C(=C\c3ccc(OC(=O)c4ccco4)c(OC)c3)C(=N)N21 | 8.51 |
| O=C(C1CC1)N1CCc2cc(Br)cc(S(=O)(=O)NCc3ccc4c(c3)OCO4)c21 | -64.8 |
| Cl.O=[N+]([O-])c1ccc(CN2CCN(c3ccc4ccccc4n3)CC2)cc1 | -12.1 |
| O=C(C[n+]1ccc(C(=O)NCc2ccccc2)cc1)c1ccc2c(c1)OCCO2.[Br-] | 12.9 |
| O=C(Nc1cccc(C(F)(F)F)c1)c1cc2c(s1)-c1ccccc1OC2 | -2.48 |
| CCOC(=O)CN1C(=O)CCSc2ccc(Cl)cc21 | 36.8 |
| COC(=O)c1ccc(N)c(CS(=O)(=O)c2ccc(Cl)cc2)c1 | -2.43 |
| Cc1ccc(C)c(OCCC(=O)OCC(=O)NCc2ccc(F)cc2)c1 | -14.4 |
| O=C(NCC1OCCc2ccccc21)c1ccc(NC(=O)c2cccc(Br)c2)cc1 (stereo not shown) | 2.42 |
| Cc1[nH]c2ccc(C(=O)Nc3ccncc3)cc2c1C | -28.5 |
| O=C(COC(=O)CNS(=O)(=O)c1ccc(F)c(F)c1F)NC1CC1 | 11.3 |
| O=C(O)/C=C/C(=O)NCCc1ccccc1 | 61.4 |
| Cc1ccc([N+](=O)[O-])cc1S(=O)(=O)Nc1ccc(C(=O)NCC2CCCO2)cc1 (stereo not shown) | -5.12 |
| CCCC(C)NC(=O)c1cc(Cl)ccc1OC (stereo not shown) | -12.4 |
| CCOC(=O)c1ccc(NC(=O)c2nc[nH]c2C(=O)NCCCCNC(=O)c2[nH]cnc2C(=O)Nc2ccc(C(=O)OCC)cc2)cc1 | 22.9 |
| CC(C)CCNC(=O)c1cc2c(=O)[nH]c3ccccc3c2s1 | 21.7 |
| CS(=O)(=O)NCCCc1ccccc1 | 16.9 |
| Cc1cc(C)n2nc(C(=O)Nc3cccc(S(=O)(=O)N(C)c4ccccc4)c3)nc2n1 | -68.3 |
| Nc1ccn(Cc2ccc(F)cc2)n1 | 28.3 |
| O=C(NCCc1cccs1)C1CC1 | 5.61 |
| Cc1c(-c2cccc(Cl)c2)nc2ccccc2c1C(=O)NC1CC1 | -60.6 |
| O=C(CN1CCC(Cc2ccccc2)CC1)NC(=O)NCc1ccco1 | -22 |
| CC(C)OC(=O)c1cc(NC(=O)c2nn(C)cc2Br)cc(C(=O)OC(C)C)c1 | 15.3 |
| Cc1cc(S(=O)(=O)N2CCN(c3c(C)cccc3C)CC2)ccc1F | -4.1 |
| Cc1c(C(=O)NC(C)c2ccccc2)c(-c2ccccc2)nn1-c1ccccc1 (stereo not shown) | 12.5 |
| COc1cccc(OC)c1C(=O)NC(=S)Nc1ccc(N2CCOCC2)c(Cl)c1 | 19.9 |

| Structure (SMILES) | hERG current change (%, negative = inhibition) at 10uM [%] |
| --- | --- |
| CCC1CN(C(=O)NCc2ccc(C)cc2)c2cc(C)ccc2O1 (stereo not shown) | -3.19 |
| CNc1ccc(/C=C(\C#N)C(=O)Nc2ccccn2)cc1[N+](=O)[O-] | 25.2 |
| CN1CCC(OC(=O)c2cc3cc(Cl)cc(Cl)c3oc2=O)CC1 | -17.8 |
| Cc1cc(=O)oc2cc(NC(=O)c3ccccc3OC(F)F)ccc12 | 26.9 |
| CN(C)CCNC(=O)Cn1nc(C(F)F)cc1C1CC1 | -1.27 |
| Cc1nc(-c2cccs2)sc1C(=O)NN | 6.49 |
| COc1ccc(C(=O)N(CC2CCCO2)C(C(=O)NCCC(C)C)c2ccc(C)cc2)cc1OC (stereo not shown) | -9.86 |
| Cc1ccc(S(=O)(=O)c2cc3c(=O)n4cccc(C)c4nc3n(Cc3ccncc3)c2=N)cc1 | -40.8 |
| COc1ccc(NC(=O)CSCC(=O)N(C)CC(=O)Nc2c(C)cccc2C)cc1 | -0.574 |
| O=C(NC1CCS(=O)(=O)C1)C1C2CC3CC(C2)CC1C3 (stereo not shown) | 20.1 |
| CN(C(=O)COc1ccccc1)c1nnc(-c2ccncc2)s1 | -9.98 |
| CCOC(=O)C1=C(c2ccccc2)Nc2ncnn2C1c1cc(OC)ccc1OC (stereo not shown) | -7.05 |
| CC(=O)Nc1ccc(NC(=O)C(C)Sc2nc3nc(C)cc(C)n3n2)cc1 (stereo not shown) | 7.98 |
| CC[N+](CC)(CC)CC(=O)Nc1c(C)cccc1C.[Br-] | 13.4 |
| COCCSc1ccccc1C(=O)Nc1ccc(Cl)cc1 | -12 |
| [O-]/C(=C(\C(=S)Nc1ccc(SC(F)F)cc1)[n+]1ccccc1)c1cc(Cl)ccc1Cl | 1.83 |
| CC1Cc2cc(S(=O)(=O)N3CCC(C(=O)N(C)Cc4ccco4)CC3)ccc2N1C(=O)C1CCC1 (stereo not shown) | -17.2 |
| COc1cccc(NC(=O)c2sc3nc(N4CCOCC4)c4c(c3c2N)CCCC4)c1 | 21.1 |
| Cc1ccc(C(=O)NNc2cc(=O)n(C)c(=O)n2C)cc1C | 10.4 |
| Cc1ccc(C(=O)C2C(c3ccc(-c4ccccc4[N+](=O)[O-])o3)NC(=O)NC2(O)C(F)(F)F)cc1 (stereo not shown) | -10 |
| Cc1ccc(CN2C(=O)c3ccccc3Sc3ccc(C(=O)NCCN4CCOCC4)cc32)cc1 | -15.2 |
| CC(=O)c1cccc(NC(=O)c2ccc(Br)o2)c1 | -1.49 |
| COc1ccc(-c2cc(C(=O)N3CCN(S(=O)(=O)c4ccccc4)CC3)[nH]n2)cc1 | 8.23 |
| Cc1nc(=O)c(-c2ccccc2)c(C)n1CCCCCC(=O)O | 10.4 |
| CC(=O)c1ccc(OCCCC(=O)NCCc2ccccc2)cc1 | 5.12 |
| Cc1ccc(C(=O)N/N=C/c2ccc(-c3cccc(Cl)c3)o2)cn1 | -27.8 |
| COc1cc2ccccc2cc1C(=O)NCC(c1cccs1)N(C)C (stereo not shown) | -27.6 |

From publication PMC4336329 (PLoS ONE, 2015)
